The campaign covered roughly 310,000 compounds. About 2,200 (0.71%) showed an effect of 50% or more. Effects have a minus sign here. The list shows a part of the results.
These compounds were tested against human ether-à-go-go-related gene (hERG) potassium channel (human, UniProt Q12809) (assay: primary screen, population patch clamp on CHO cells stably expressing hERG).
Chain of human ether-à-go-go-related gene (hERG) potassium channel (Q12809 whole entry, looked up): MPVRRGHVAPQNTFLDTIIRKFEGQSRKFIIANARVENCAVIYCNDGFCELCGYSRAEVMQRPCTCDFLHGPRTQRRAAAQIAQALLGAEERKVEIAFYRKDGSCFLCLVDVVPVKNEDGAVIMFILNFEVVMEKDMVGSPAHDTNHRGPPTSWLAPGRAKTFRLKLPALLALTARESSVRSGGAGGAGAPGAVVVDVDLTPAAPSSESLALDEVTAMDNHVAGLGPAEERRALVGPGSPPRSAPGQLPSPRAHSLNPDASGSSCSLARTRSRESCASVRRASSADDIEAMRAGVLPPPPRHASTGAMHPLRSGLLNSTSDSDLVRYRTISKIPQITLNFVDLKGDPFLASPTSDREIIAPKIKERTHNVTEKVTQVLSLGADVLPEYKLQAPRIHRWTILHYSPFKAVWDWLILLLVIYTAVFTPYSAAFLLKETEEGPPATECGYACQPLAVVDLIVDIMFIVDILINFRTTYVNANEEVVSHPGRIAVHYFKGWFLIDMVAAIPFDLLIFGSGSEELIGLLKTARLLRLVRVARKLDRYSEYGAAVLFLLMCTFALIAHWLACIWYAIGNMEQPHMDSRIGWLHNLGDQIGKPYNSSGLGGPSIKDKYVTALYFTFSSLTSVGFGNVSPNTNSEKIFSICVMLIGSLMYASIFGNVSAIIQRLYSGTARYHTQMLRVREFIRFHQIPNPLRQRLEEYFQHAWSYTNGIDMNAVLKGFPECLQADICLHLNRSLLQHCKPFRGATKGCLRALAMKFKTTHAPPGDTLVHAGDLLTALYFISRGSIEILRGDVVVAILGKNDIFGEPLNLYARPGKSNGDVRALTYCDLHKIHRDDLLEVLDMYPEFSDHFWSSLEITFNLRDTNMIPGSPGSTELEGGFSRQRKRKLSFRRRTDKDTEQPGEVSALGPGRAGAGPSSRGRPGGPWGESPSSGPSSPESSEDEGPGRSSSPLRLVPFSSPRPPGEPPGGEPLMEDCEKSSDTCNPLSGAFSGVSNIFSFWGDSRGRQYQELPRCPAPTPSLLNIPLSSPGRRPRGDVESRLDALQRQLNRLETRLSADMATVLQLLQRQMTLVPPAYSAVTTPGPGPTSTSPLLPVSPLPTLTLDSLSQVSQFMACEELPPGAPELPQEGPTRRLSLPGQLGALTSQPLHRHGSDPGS

In order of falling “hERG current change (%, negative = inhibition) at 1uM” value:
1. O=C(O)/C=C/C(=O)Nc1ccc(Cc2ccc(NC(=O)/C=C/C(=O)O)cc2)cc1  20.1%
2. Fc1cccc2sc(Nc3nc4cc5c(cc4s3)OCCO5)nc12  19.5%
3. Cc1ccc(NC(=O)C2CCC(CNC(=O)[C@@H]3Cc4ccccc4CN3)CC2)c(C)c1 (stereo partly shown)  18.2%
4. O=C(O)CCCCCNC(=O)CSc1nnc(-c2ccco2)n1-c1ccccc1  17.7%
5. CCCC[C@@H]1CN=C(N)N1CCCC  17.5%
6. CCN(CC)C(=O)CSc1nc(Cc2ccccc2)nc2ccccc12  17.4%
7. CCOC(=O)C1=C(C)NC(=O)NC1c1ccc(OCCO)c(OC)c1 (stereo not shown)  16.9%
8. CCOC(=O)/C(C#N)=C/c1c(Oc2cccc(C)c2)nc2c(C)cccn2c1=O  16.1%
9. CN1CCN(CC(O)COc2ccc(C(=O)O)cc2)CC1 (stereo not shown)  15.9%
10. O=C(O)c1ccc(N2C(=O)c3cccnc3C2=O)cc1  15.5%
11. CCn1c(SCC(=O)N2CCC(C(N)=O)(N3CCCCC3)CC2)nnc1-c1ccccc1  14.7%
12. CS(=O)(=O)NCc1ccccc1Br  14.5%
13. COc1ccc(/C=N\NC(=O)c2ccc(Cn3cc(Br)c([N+](=O)[O-])n3)o2)c(OC)c1C  14.3%
14. CC1CCCC(NC(=O)CCC(=O)N2CCOc3ccccc32)C1C (stereo not shown)  14.3%
15. CCOC(=O)C1CCN(Cc2cn[nH]c2-c2ccccc2)CC1.O=C(O)C(=O)O  14.2%
16. COc1cc(OC)cc(OCC(O)Cn2ccnc2)c1 (stereo not shown)  13.8%
17. COc1ccc([N+](=O)[O-])cc1N(CC(O)CN1C(=O)NC(C)(C)C1=O)S(=O)(=O)c1ccccc1 (stereo not shown)  13.7%
18. CCOC(=O)c1csc(N)c1-c1ccc([N+](=O)[O-])cc1  13.7%
19. COC(=O)[C@@H]1C[C@H]2CC[C@H](O)C[C@H]2N1Cc1ccc(C(C)(C)C)cc1  13.4%
20. COc1ccc(CC(=O)N2N=C(C)CC2(O)c2cccnc2)cc1 (stereo not shown)  13.2%
21. O=C(O)CCc1nn2cc(-c3ccccc3)nc2[nH]c1=O  13.1%
22. COc1ccc(NC(=O)C(C)Sc2nnc3c4c(nc(-c5ccc(OC)cc5)n23)CC(C)(C)OC4)cc1 (stereo not shown)  12.8%
23. CC(C)NC(=O)Nc1n[nH]c(Nc2ccc(Cl)cc2)n1  12.4%
24. O=C(COC(=O)c1ccc2[nH]c3c(c2c1)CCCC3)Nc1ccccc1Cl  12%
25. COc1ccc(OC)c(C(C(=O)NCc2ccco2)N(C(=O)Cn2nnc3ccccc32)C2CC2)c1 (stereo not shown)  11.7%
26. CCS(=O)(=O)N1CCN(Cc2ccccc2OC)CC1.O=C(O)C(=O)O  11.4%
27. O=c1cc(N2CCc3ccccc32)[nH]c(=O)n1-c1ccc(Br)cc1  11.3%
28. Cc1ccc(N(CCC#N)C(=O)COC(=O)c2cc(C)oc2C)cc1  11%
29. CCCNC(=S)N1CCN(c2nc(-c3cccc(OC)c3)cs2)CC1  10.4%
30. Cn1c(=O)c2c(nc(NCc3ccccc3)n2CC(=O)NCc2ccccc2)n(C)c1=O  10.4%
31. Cc1cc(C)c(S(=O)(=O)N2CCCc3ccccc32)c(C)c1  10.3%
32. Cc1cccc(-c2ocnc2C(=O)Nc2ccccc2C(=O)N2CCCC2)c1  10.2%
33. CCOC(=O)Cc1ccc(NC(=O)c2ccc([N+](=O)[O-])cc2)cc1  10.1%
34. COc1ccccc1Nc1nn2c(=O)c3ccc(C(=O)N4CCCC(C)C4)cc3nc2s1 (stereo not shown)  9.93%
35. Cn1cc(C(=O)N/N=C/c2ccc(Br)c([N+](=O)[O-])c2)c2ccccc21  9.53%
36. CCOC(=O)c1[nH]c(C)c(C(=O)NC2CCCCC2)c1C  9.46%
37. O=C(Nc1ccc2c(c1)OCO2)c1noc2c1CCCC2  9.29%
38. C[C@H]1CC[C@@]2(O[C@H](CCO)C[C@@H](O)[C@@H]2O)O1  9.11%
39. CCCCCCN1C=CC(=C/C=C(\C#N)C(=O)OCC)C=C1  8.93%
40. CNC(=O)c1ccc(N(Cc2ccccc2C)S(C)(=O)=O)cc1  8.84%
41. CC(C(=O)NCCC1=CCCCC1)N1C(=O)c2ccccc2C1=O (stereo not shown)  8.47%
42. Cc1cc(C)c(NC2=NCC(=O)N2C2CCCCC2)c(C)c1  8.28%
43. CN(Cc1ccon1)C(=O)CCc1nnc(CCCCc2ccccc2)o1  7.92%
44. CC1=N/C(=C\c2ccc([N+](=O)[O-])cc2)C(=O)N1c1ccc(Cl)cc1  7.82%
45. O=C(Cc1ccccc1)Nc1cccc(N2C(=O)C=CC2=O)c1  7.05%
46. CC1(C)C(=O)Nc2ccccc2N1C(=O)COc1cccnc1[N+](=O)[O-]  6.9%
47. Cc1cc(-c2ccccc2)[nH]c(=O)c1S(=O)(=O)c1ccccc1  6.8%
48. N#C/C(=C\c1cn(CCOc2ccccc2F)c2ccccc12)C(=O)NCc1cccs1  6.48%
49. O=C(NNC(=S)NCc1ccccc1)c1ccc2c(c1)OCO2  6.36%
50. CCc1ccc(C(=O)COC(=O)c2n[nH]c3ccccc23)cc1  6.32%
51. Cc1ccc(F)cc1NC(=O)CCOc1ccccc1  6.03%
52. CCn1c(SCC(=O)N2CCCC2=O)nnc1-c1cccs1  5.99%
53. Cn1c(SCC(=O)O)nnc1-c1cccc(NC(=O)c2cccc3ccccc23)c1  5.75%
54. CC(C)(C)c1ccc(OCCC(=O)NCCc2ccc(S(N)(=O)=O)cc2)cc1  5.64%
55. CCc1cccc(C)c1NC(=O)CO/N=C(\C)c1cc2ccccc2o1  5.55%
56. CNC(=O)[C@H]1O[C@@H](n2cnc3c(NCc4cccc(I)c4)ncnc32)[C@H](O)[C@@H]1O  5.45%
57. Cc1ccc(O)c(NC(=O)c2cc(-c3ccc(F)cc3)on2)c1  5.26%
58. O=C(c1ccccc1)c1nccc2ccccc12  4.76%
59. O=C(CCS(=O)(=O)c1ccccc1)Nc1ccc(-c2nc3ccccc3s2)cc1  4.39%
60. COc1ccc(N2CC(C(=O)Nc3ccc(S(=O)(=O)Nc4nccs4)cc3)CC2=O)c(OC)c1 (stereo not shown)  4.38%
61. Cn1c(SCC(=O)N2CCN(c3ccccc3)CC2)nnc1-c1ccco1  4.22%
62. CC(C)(C)NC(=O)/C=C/c1ccc(C(F)(F)F)cc1  3.72%
63. COc1ccc(CNC(=O)CCc2c(C)nc3ncnn3c2C)cc1  3.51%
64. Cc1cc(SCC(=O)NCC(c2cccs2)N2CCOCC2)c(C)cc1Br (stereo not shown)  3.5%
65. CCCn1nc(C(=O)Nc2ccc3c(c2)OCO3)c2ccccc2c1=O  3.16%
66. C(=C\c1ccccc1)/CSc1ccccn1  3%
67. CCN(CC)S(=O)(=O)c1ccc(N2CCOCC2)c(C(=O)O)c1  2.92%
68. CC(C)NC(=O)N(Cc1ccc(Cl)cc1)Cc1cccs1  2.33%
69. CCCCOC(=O)c1ccc(NC(c2ccc(C)cc2)P(=O)(OC)OC)cc1 (stereo not shown)  1.78%
70. O=C(c1cc(-c2cccs2)on1)N1CCN(c2ccc(F)cc2)CC1  1.64%
71. Cc1cccc(Cn2c(SCCN3CCOCC3)nc3c2c(=O)n(C)c(=O)n3C)c1  1.11%
72. Cc1ccccc1NC(=S)N(Cc1ccccn1)Cc1ccccc1Cl  0.982%
73. OCCC1CN(Cc2c(F)cccc2Cl)CCN1C1CCCCC1 (stereo not shown)  0.337%
74. COc1cc(NC(=O)CCn2c(=O)[nH]c3ccsc3c2=O)cc(OC)c1  0.0578%
75. O=c1[nH]c(=S)n(CCC2=CCCCC2)c(O)c1/C=N/N1CCOCC1  -0.025%
76. O=c1[nH]c(SCc2c(Cl)cccc2Cl)nc2ccccc12  -0.189%
77. O=C(Nc1cc(Cl)cc(Cl)c1)C(NCCO)c1ccccc1 (stereo not shown)  -0.358%
78. COc1ccccc1CNC(=O)C1CCN(S(=O)(=O)c2ccc3c(c2)OCCCO3)CC1  -1.02%
79. Cc1ccc(Cl)cc1N(CC(=O)Nc1cccc(N(C)S(C)(=O)=O)c1)S(C)(=O)=O  -2.06%
80. CC(C(=O)NCCS(=O)(=O)c1ccc(Br)cc1)S(=O)(=O)c1ccc(Cl)cc1 (stereo not shown)  -5.26%
81. C=CCOc1ccc(NC(=O)C(=O)NCCCn2ccnc2)cc1  -6%
82. CCc1cc2c(s1)NC(=O)CN=C2c1cccs1  -6.49%
83. COc1ccc(-c2nnc3ccc(SCC(=O)NCc4ccco4)nn23)cc1OC  -13.8%
84. COCCn1c(=NC(=O)CSC(C)=O)sc2cc(OC)ccc21  -16.2%
85. O=C(CN1CCN(S(=O)(=O)c2ccc(Cl)c(Cl)c2)CC1)N1CCCCC1  -17.6%
86. Cn1c(-c2cccc(Br)c2)cnc1NCc1cccnc1  -18.6%
87. Cc1cc(C(=O)N2CCCC(N3CCN(c4ccc(F)cc4)CC3)C2)c(C)o1 (stereo not shown)  -29.3%
88. OC(COCc1ccco1)CN1CCN(C(c2ccccc2)c2ccccc2)CC1 (stereo not shown)  -79.1%
